# From PubChem BioAssay AID652104 (National Center for Advancing Translational Sciences (NCATS), 2013)
# In all, about 410,000 compounds went through this assay and about 7,200 (1.8%) were called active. The shares of active, inactive and inconclusive entries below differ from those in the screen. Calls come from the whole dose curve; as a rule, active = well fitted activation curve with a large enough effect; inconclusive = small, poorly fitted or top-dose-only effect, or another doubt; inactive = no such curve, though single readings can be large or run the other way. No potency is given beside an inconclusive call; the fits are too rough.
# Experiment: qHTS of TDP-43 Inhibitors; note: nearly all actives have a fitted effect of over 50% in size; for growth rescue (activation): % of control where 0% means no effect
# Conditions: TDP-43 expressing yeast growth rescue, BacTiter-Glo, 24 h; growth rescue (activation): at 46.1 µM (top of the series) unless noted
# In short: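 Growth rescue of TDP-43-toxic yeast measured as ATP luminescence (BacTiter-Glo). Cells grown to mid-log in raffinose, induced in galactose at OD600=0.02, exposed to compound 24 hr at 30 deg C.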
# Potency is the fitted concentration of half-maximal effect; tags give direction and shape of the fitted curve.
Compound,Potency,growth rescue (activation)
CCCOc1ccc(Cn2c(=O)sc3ccccc32)cc1,"inconclusive [activator, partial curve]",–
CC1CCC(C(C)C)C(OC(=O)COC(=O)c2cc(O)ccc2N)C1 (centres undefined),"inconclusive [activator, single point]",–
O=C(Nc1ccccc1)SC1CCCCC1,"inconclusive [activator, partial curve]",–
CCOC(=O)c1ccc2[nH]c3ccccc3c2c1,"inconclusive [activator, full curve]",–
CC#C[C@]1(O)CC[C@H]2[C@@H]3CCC4=CC(=O)CCC4=C3[C@@H](c3ccc(N(C)C)cc3)C[C@@]21C,–,inactive: 19.8%
CCOc1ccc(-c2nc(CCl)cs2)cc1OC,"inconclusive [activator, partial curve]",–
Cc1nc(Cl)c(C#N)c2c1CCCC2,"inconclusive [activator, single point]",–
Cc1ccc2c(c1)sc(-c1ccc(N(C)C)cc1)[n+]2C,"inconclusive [activator, single point]",–
O=C(NCCc1ccccc1)c1c[nH]c2c(F)cccc2c1=O,"inconclusive [activator, single point]",–
Fc1ccc(CSc2ncnc3c2ncn3C2CCCCO2)cc1 (centres undefined),"inconclusive [activator, partial curve]",–
O=C1c2ccccc2C(c2nnnn2Cc2ccccc2)N1Cc1cccs1 (centres undefined),"inconclusive [activator, partial curve, poor fit]",–
CNc1cncc(-c2ccccc2NC(C)=O)n1,"inconclusive [activator, full curve, poor fit]",–
COc1cc(Cl)c(C)cc1NC(=O)c1nn(C)c2c1CSc1ccccc1-2,–,inactive: 12.8%
COc1ccc(C2CC(=O)N(CC(=O)Nc3ccc(C(C)=O)cc3)c3ccccc3S2)cc1OC (centres undefined),–,inactive: 9.51%
CCOc1ncccc1C(=O)Nc1ccccc1N1CCOCC1,"inconclusive [activator, single point]",–
CSc1nnc2ccc(-c3ccc(C)cc3)nn12,"inconclusive [activator, partial curve]",–
COc1ccc(N2CCN(C(=O)c3c(Cl)cnn3C)CC2)cc1,"inconclusive [activator, partial curve, poor fit]",–
c1ccc(-c2nc3c4ccccc4ccn3c2Cc2ccsc2)cc1,–,inactive: 11.5%
COc1ccc(Nc2cc(C(=O)NCCCN(C)C3CCCCC3)c3ccccc3n2)c(OC)c1,–,inactive: 2.65%
Cc1ccc2c(C(=O)N3CCN(c4ccccc4)CC3)cc(-c3cccnc3)nc2c1C,"inconclusive [activator, partial curve]",–
O=C(NCc1ccc(Cl)cc1)c1cccc2c1C(=O)N(CC1CCCO1)C2 (centres undefined),"inconclusive [activator, single point]",–
COc1ccc2c(c1)c1nnc(SC)nc1n2C,active: 2.82 µM,–
CC(C)OCCCNS(=O)(=O)c1ccc2c(c1)oc(=O)n2C,"inconclusive [activator, full curve]",–
O=C(NCc1ccccc1)c1cc(=O)c2ccccc2o1,"inconclusive [activator, single point]",–
CCC(C)Sc1nnc(NC(=O)c2ccco2)s1 (centres undefined),active: 12.6 µM,–

Compound,Potency,growth rescue (activation)
CCOc1ccc(S(=O)(=O)N2CCN(C(=S)NCC3CCCO3)CC2)cc1 (centres undefined),–,inactive: -4.84%
COc1cc(/C=C/C(=O)OCC(=O)N2CCC(Cc3ccccc3)CC2)ccc1O,"inconclusive [activator, single point]",–
CN(C)S(=O)(=O)c1cccc(C(=O)N=C2N=C3C=CC(Cl)=CN3Cc3ccccc32)c1,–,inactive: 10.4%
Cc1ccc(C(=O)N2CCN3C(=O)c4ccccc4C23c2ccc(Cl)cc2)cc1 (centres undefined),"inconclusive [activator, single point]",–
COc1cccc(-n2cc(C(=O)NCc3ccc(C)cc3)c3ccccc3c2=O)c1,"inconclusive [activator, single point]",–
Cc1ccc(-c2nc3cc(C)c(Br)c(C)n3c2CC(C)(C)C)cc1,–,inactive: 3.87%
CCN(CC)c1c([N+](=O)[O-])c(=O)n(C)c2ccccc12,–,inactive: -6.83%
COc1ccc(C2SCCN2C(=S)Nc2ccc(Cl)cc2)cc1 (centres undefined),–,inactive: 0.872%
O=C(COc1ccc(Cl)cc1)NCc1ccc(F)cc1,active: 11.2 µM,–
CCC(Sc1nc2ncccc2o1)C(=O)Nc1cccc(C)c1 (centres undefined),–,inactive: -6.28%
O=C(CSc1nccn1Cc1ccc(Cl)cc1)Nc1ccc2c(c1)OCO2,–,inactive: 23.2%
COc1ccc(NC(=O)C[C@@H]2C(=O)N(Cc3ccccc3)CC2(C)C)cc1,"inconclusive [activator, partial curve]",–
CCCCCCc1cc2cc(-c3cn4c(n3)sc3cc(OC)ccc34)c(=O)oc2cc1O,–,inactive: -2.7%
O=C1C=C(c2cnc3ccccc3c2)C[C@@H](c2ccc3c(c2)OCO3)C1,active: 15.8 µM,–
O=C(CCCn1c(=O)[nH]c2ccccc2c1=O)N1CCN(c2ccccc2)CC1,–,inactive: -1.16% [at 9.22 µM]
COc1ccc(-c2nc(CNC(=O)NC3CCCCC3)c(C)o2)c(OC)c1,–,inactive: 0%
Cc1ccccc1/C(N)=N/OC(=O)c1ccc(F)cc1,–,inconclusive: -92.9% [activator]
CC(=O)Oc1ccc(-c2nc3ccccc3c(=O)o2)cc1,"inconclusive [activator, partial curve]",–
Cc1cc(-c2nc(-c3ccncc3)no2)ccc1[N+](=O)[O-],active: 11.2 µM,–
Cc1ccc(C(=O)c2sc(Nc3ccc(F)cc3)nc2N)c(C)c1,"inconclusive [activator, single point]",–
Cc1noc(C)c1CSc1nc2ccccc2c(=O)n1-c1ccc(F)cc1F,"inconclusive [activator, partial curve]",–
Cc1cccc(C)c1N1C(=O)C2ON(c3ccccc3)C(c3ccncc3)C2C1=O (centres undefined),"inconclusive [activator, single point]",–
C=CCNc1nc(SCC=C)nc2ccsc12,"inconclusive [activator, single point]",–
COc1ccc(Nc2ccc(S(=O)(=O)N3CCCCC3)cc2[N+](=O)[O-])cc1OC,"inconclusive [activator, single point]",–
Cc1ccc(-c2nc3ccccc3[nH]2)cc1NC(=O)c1sc2ccccc2c1Cl,"inconclusive [activator, partial curve]",–

Compound,Potency,growth rescue (activation)
Cc1ccc(-n2ncc3c(N4CCCCC4)ncnc32)cc1,"inconclusive [activator, partial curve]",–
O=C(Nc1ccnn1C1CCN(CCCc2ccccc2)CC1)c1ccccc1Cl,–,inactive: 8.42%
O=C(COC(=O)/C=C/c1ccc(S(=O)(=O)N2CCOCC2)cc1)NCc1ccc(F)cc1,–,inconclusive: 16.3% [activator]
COc1ccccc1CNS(=O)(=O)c1ccc(-c2cc(C)no2)cc1,"inconclusive [activator, partial curve]",–
Cc1ccc(NC(=O)C2CCCN(c3ncnc4c3nc3n4CCCCC3)C2)cc1Cl (centres undefined),"inconclusive [activator, single point]",–
Cc1cccc(N(C)C(=O)c2cc3c(=O)oc4ccc(C)cc4c3s2)c1,–,inactive: 0.573%
CCn1c(CNc2ccc(C)cc2C)nnc1SCC(=O)N1CCCc2ccccc21,"inconclusive [activator, partial curve, poor fit]",–
O=C(NCC1CCCO1)c1sc2cc(Cl)ccc2c1Cl (centres undefined),"inconclusive [activator, partial curve]",–
COc1cccc(N2CCN(c3ncnc4c3[nH]c3ccc(F)cc34)CC2C)c1 (centres undefined),"inconclusive [activator, single point]",–
CC(O)[C@H]1CNC(=O)C(=O)N1CC1(c2ccccc2)CC1 (some centres undefined),–,inactive: 11.8%
CCOCCc1nn2c(=O)cc(COC(=O)c3ccccc3NC(=O)CC(C)C)nc2s1,"inconclusive [activator, partial curve]",–
O=C(CNc1ccc(Cl)cc1)c1ccc(Br)cc1,–,inactive: 18.4%
Cc1ccc(CCN2CC(C(=O)NCCCN3CCC(C)CC3)CC2=O)cc1 (centres undefined),"inconclusive [activator, single point]",–
CCOc1ccc(-c2noc(CSc3nnc(Cc4ccccc4)n3-c3ccc(F)cc3)n2)cc1,"inconclusive [activator, single point]",–
CC1(C(=O)Nc2ccc(Cl)c(Cl)c2)CCN1C(=O)C1CCCCC1 (centres undefined),"inconclusive [activator, single point]",–
O=C(CO/N=C/c1cccc([N+](=O)[O-])c1)NC1CCCCCC1,"inconclusive [activator, partial curve]",–
CCOC(=O)N1CCN(C2OC(=O)c3ccccc32)CC1 (centres undefined),–,inactive: -6.58%
CCN1CCOC(=O)C1CC(=O)Nc1cc(Cl)ccc1C (centres undefined),–,inconclusive: -91.9% [activator]
COc1ccc(Cl)cc1NC(=O)CC(C)c1ccccc1 (centres undefined),active: 12.6 µM,–
O=C(Nc1ccc(Cl)cc1)c1cc2c(-c3ccccc3)nn(-c3ccccc3)c2s1,–,inactive: 17.6%
S=C(NCCc1ccc(Cl)cc1)NC1CC1,"inconclusive [activator, partial curve]",–
Cc1ccc(C(=O)CNc2ccc(C)cc2C)cc1,"inconclusive [activator, partial curve]",–
O=C(COC(=O)c1ncc(Cl)c(Cl)c1Cl)Nc1ccc(Cl)cn1,–,inactive: 13.8%
O=C(NNC1=Nc2cccc3cccc1c23)c1ccc(Br)cc1,"inconclusive [activator, full curve]",–
